According to patent US20260132200A1 (Regeneron, published 2026):
Positions count from the first letter of the chain named.

B1: H1H7269P (monovalent 1-arm) (other)
VH: QVQLVESGGGLVQPGRSLRLSCAASGFKFDDYTMHWVRQGPGKGLEWVSDISWSGGSIDYTDSVKGRFSISRDNAKNSLYLQMNSLRVEDTALYYCVKDKSGYGKYSYGLDVWGQGTTVTVSS
VL: [letters of about 100 residues not shown]
B2: H1H7208P (monovalent 1-arm) (other)
VH: QVQLVESGGGLVHPGRSLRLSCAASGFKFDDYTMHWVRQAPGKGLEWVSDISWNSGSKGYADSVKGRFTISRDNAKDSLYLQMDSLRAADTAFYYCAKDKSGYGHFYYYAMDVWGQGTTVTVSS
VL: [letters of about 100 residues not shown]
B3: H1H7196P (monovalent 1-arm) (other)
VH: EVQLVESGGGMVQPGRSLRLSCAASGFPFNDYTMHWVRQVPGRGLEWVSDISWNSGSKGYADSVKGRFIISRDNAKNSLYLQMNSLRVEDTALYYCVKDGSGYGRFHYYAMDVWGQGTTVTVSS
VL: [letters of about 100 residues not shown]
B4: H1H7194P (monovalent 1-arm) (other)
VH: EVQLVESGGGLVQPGRSLRLSCAASGFTFGDYTMHWVRQAPGKGLEWVSDISWNSGSKDYADSVKGRFTISRDNAKNSLYLQMNSLRTEDTAFYYCAKDSRGYGLYYHLGLDVWGQGTTVTVSS
VL: [letters of about 100 residues not shown]
B5: H1H7242P (monovalent 1-arm) (other)
VH: EVQLVESGGGLVQPGRSLRLSCAASGFTFDDYTMHWVRQGPGKGLEWVSDIGWNSNSIGYADSVKGRFTISRDNAKNSLYLQMNSLRPEDTALYFCVKDKSGYGKFFIGLDVWGQGTMVTVSS
VL: [letters of about 100 residues not shown]
B6: H1H7223P (monovalent 1-arm) (other)
VH: QVQLVESGGGLVQPGRSLRLSCAASGFTFADYTMHWVRQAPGKGLEWVSDISWNSGSMGYADSVKGRFTISRDNAKKSLYLQMNSLRTEDTALYYCAKDGSGYGKYFFYAMDVWGQGTTVTVSS
VL: [letters of about 100 residues not shown]
B7: H1H7204P (monovalent 1-arm) (other)
VH: EVQLVESRGALVQPGRSLRLSCAASGFAFNDYTMHWVRQAPGKGLEWVSDISWNSNSKDYADSVKGRFTISRDNAKNSLYLQMNSLRAEDTALYYCVKDGSGYGKFSLYALDVWGQGTTVTVSS
VL: [letters of about 100 residues not shown]
B8: H1H7195P (monovalent 1-arm) (other)
VH: B4 VH with G30A, K58I, D59A, L105H, Y107K, H108Y
VL: [letters of about 100 residues not shown]
B9: H1H7211P (monovalent 1-arm) (other)
VH: EVQLVESGGGLVHPGRSLRLSCTASGFKFADYTMHWVRQAPGKGLEWVSDISWNSGSKGYADSVKGRFTISRDNDKNSLYLQMNSLRGEDTALYYCAKDGSGYGRFHFYAIDVWGQGTTVTVSS
VL: [letters of about 100 residues not shown]
B10: H1H7233P (monovalent 1-arm) (other)
VH: EVQLVESGGGLVQPGGSLRLSCEASGFTFADYTLHWVRQAPGKGLEWVSDISWNSGTRGYADSVRGRFTISRDNAKKSLYLQMNSLRSEDTALYYCVKDGSGYGRYNFYAMDVWGQGTTVTVSS
VL: [letters of about 100 residues not shown]
B11: H1H7241P (monovalent 1-arm) (other)
VH: B5 VH with D30A, S57T, T69A, F95Y, F107Q, I108Y, M118T
VL: [letters of about 100 residues not shown]
B12: H1H7226P (monovalent 1-arm) (other)
VH: B6 VH with Q1E, E6Q, A30S, A40G, M58K, A61T, T88A, A97V, F107H, T119L
VL: [letters of about 100 residues not shown]
B13: H1H7221P (monovalent 1-arm) (other)
VH: EVQLVESGGGLVQPGRSLRLSCVASGFTFDDYSMHWVRQAPGKGLEWVSGISWNSGSKDYADSVKGRFTISRDNAKNSLYLQMNSLRAEDTALYYCAKYGSGYGKFYHYGLDVWGQGTTVTVSS
VL: [letters of about 100 residues not shown]
B14: H1H7232P (monovalent 1-arm) (other)
VH: B2 VH with Q1E, K28T, K58R, K76E, D77N, D84N, A89E, F93L, F106Y
VL: [letters of about 100 residues not shown]
B15: H1H7254P (monovalent 1-arm) (other)
VH: B5 VH with L11V, T28K, D31G, S57T
VL: [letters of about 100 residues not shown]
B16: H1H7198P (monovalent 1-arm) (other)
VH: B13 VH with V23A, D30A, S33T, A40V, G50D, S78F, A97V, H108F, G110A, L111M
VL: [letters of about 100 residues not shown]
B17: H1H7258P (monovalent 1-arm) (other)
VH: B5 VH with E1Q, S57T, K76R, F95Y, F107Q, I108Y, M118T
VL: [letters of about 100 residues not shown]
B18: H1H7250P (monovalent 1-arm) (other)
VH: B5 VH with E1Q, S57T, I58K
VL: [letters of about 100 residues not shown]
B19: H1H7251P (monovalent 1-arm) (other)
VH: EVQLVESGGGLVQPGRSLRLSCAASGFTFADYTMHWVRQGPGTGLEWVSDIGWSGGSLGYADSVKGRFTISRDNAKNSLYLEMNNLRPEDTALYYCVKDKSGYGKFQYGLDVWGQGTTVTVSS
VL: [letters of about 100 residues not shown]
B20: H1H7203P (monovalent 1-arm) (other)
VH: B6 VH with Q1E, E6Q, A40T, D50G, M58K, G59D, K77N, D99Y, K105R
VL: [letters of about 100 residues not shown]

Target: T1, human CD3 expressed on cells (Jurkat, a CD3+ human T-cell line; human T cells) (human, UniProt P07766 23-126; P04234 22-100)
T1 chain 1: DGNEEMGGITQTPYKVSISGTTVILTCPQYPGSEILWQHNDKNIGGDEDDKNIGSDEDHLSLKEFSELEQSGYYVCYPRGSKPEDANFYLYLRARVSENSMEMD
T1 chain 2: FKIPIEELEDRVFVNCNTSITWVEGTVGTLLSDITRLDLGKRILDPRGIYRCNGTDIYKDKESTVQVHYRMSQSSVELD
Experiment: cell-based or functional assay

Compared with B1, B2 is 4.2-fold higher in “U937 Cytotoxicity Human T-cells [M] (EC50)” value: 1.08e-11 M for the first, 4.59e-11 M for the second.

Going from B3 to B4, the “U937 Cytotoxicity Human T-cells [M] (EC50)” value falls from 1.96e-11 M to 4.71e-12 M (4.2-fold).

B5 and B6 are within 1.5-fold of each other in “U937 Cytotoxicity Human T-cells [M] (EC50)” value: 7.5e-12 M for the first, 5.3e-12 M for the second.

First: B7
Second: B8
The “U937 Cytotoxicity Human T-cells [M] (EC50)” value of the first is 1.8-fold higher: 1.08e-11 M for the first, 6.1e-12 M for the second.

Going from B9 to B10, the “U937 Cytotoxicity Human T-cells [M] (EC50)” value rises from 7.89e-12 M to 1.19e-11 M (1.5-fold).

B11 and B12 are within 1.5-fold of each other in “U937 Cytotoxicity Human T-cells [M] (EC50)” value: 1.23e-11 M for the first, 1.04e-11 M for the second.

B13 and B14 are within 1.5-fold of each other in “U937 Cytotoxicity Human T-cells [M] (EC50)” value: 9.21e-12 M for the first, 9.96e-12 M for the second.

B15 and B16 are within 1.5-fold of each other in “U937 Cytotoxicity Human T-cells [M] (EC50)” value: 4.18e-12 M for the first, 5.21e-12 M for the second.

Going from B17 to B18, the “U937 Cytotoxicity Human T-cells [M] (EC50)” value falls from 1.53e-11 M to 5.91e-12 M (2.6-fold).

First: B19
Second: B20
The “U937 Cytotoxicity Human T-cells [M] (EC50)” value of the first is 3-fold lower: 1.81e-12 M for the first, 5.47e-12 M for the second.
